Data from patent publication US20230093512A1 (NANJING GENSCRIPT BIOTECH, published 2023).

How the values were obtained:
[1] = biological target: T1, human PD-L1 (PD-L1 aAPC/CHO-K1 cells) (human, UniProt Q9NZQ7); test: cell-based or functional assay
[2] = biological target: T1, human PD-L1 (PD-L1 aAPC/CHO-K1 cells); test: cell-based or functional assay; remark: listed apart in the source
T1 sequence (Q9NZQ7 19-290): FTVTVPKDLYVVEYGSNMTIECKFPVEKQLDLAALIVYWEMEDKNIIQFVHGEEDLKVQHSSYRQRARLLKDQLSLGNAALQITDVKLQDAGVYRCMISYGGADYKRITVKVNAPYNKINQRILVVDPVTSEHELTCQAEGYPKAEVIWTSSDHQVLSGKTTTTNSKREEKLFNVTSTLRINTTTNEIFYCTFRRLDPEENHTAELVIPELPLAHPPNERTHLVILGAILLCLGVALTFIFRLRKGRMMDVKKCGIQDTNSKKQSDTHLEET

- EC50, luminescence (RLU) of PD-1 effector cells co-cultured with PD-L1 aAPC/CHO-K1 cells, PD-1/PD-L1 blockade bioassay [1]: 0.422 nM
- EC50, luminescence (RLU) of PD-1 effector cells co-cultured with PD-L1 aAPC/CHO-K1 cells, PD-1/PD-L1 blockade bioassay [2]: 0.414 nM
B1: Anti-PD-L1 mAb (antibody, human IgG1, kappa)
heavy chain H0: EVQLVQSGAEVKKPGASVKVSCKASGYIFTGYGITWVRQAPGQGLEWMGEIFPRRVQTYYSEKFKGRVTMTTDTSTSTAYMELRSLRSDDTAVYYCARDYDPYFALDYWGQGTTVTVSSASTKGPSVFPLAPSSKSTSGGTAALGCLVKDYFPEPVTVSWNSGALTSGVHTFPAVLQSSGLYSLSSVVTVPSSSLGTQTYICNVNHKPSNTKVDKKV[gap - human IgG1 Fc with changes]
light chain L0: DIQMTQSPSSLSASVGDRVTITCRASQDVSTAVDWYQQKPGKAPKLLIYSASYRYTGVPDRFSGSGSGTDFTFTISSLQPEDIATYYCQQHYSIPFTFGQGTKLEIKRTVAAPSVFIFPPSDEQLKSGTASVVCLLNNFYPREAKVQWKVDNALQSGNSQESVTEQDSKDSTYSLSSTLTLSKADYEKHKVYACEVTHQGLSSPVTKSFNRGEC

Read-outs that look alike come from different tables or passages of the source.
